In all, about 310,000 compounds went through this assay and about 14,000 (4.5%) showed an effect of 50% or more. The effect is printed as a negative number. The list shows a part of the results.
Target: human ether-à-go-go-related gene (hERG) potassium channel (human, UniProt Q12809)
Experiment: primary screen, population patch clamp on CHO cells stably expressing hERG
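Further: peak tail current of the secondary pulse compared with the same well before compound.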

Chain of human ether-à-go-go-related gene (hERG) potassium channel (Q12809 whole entry, looked up): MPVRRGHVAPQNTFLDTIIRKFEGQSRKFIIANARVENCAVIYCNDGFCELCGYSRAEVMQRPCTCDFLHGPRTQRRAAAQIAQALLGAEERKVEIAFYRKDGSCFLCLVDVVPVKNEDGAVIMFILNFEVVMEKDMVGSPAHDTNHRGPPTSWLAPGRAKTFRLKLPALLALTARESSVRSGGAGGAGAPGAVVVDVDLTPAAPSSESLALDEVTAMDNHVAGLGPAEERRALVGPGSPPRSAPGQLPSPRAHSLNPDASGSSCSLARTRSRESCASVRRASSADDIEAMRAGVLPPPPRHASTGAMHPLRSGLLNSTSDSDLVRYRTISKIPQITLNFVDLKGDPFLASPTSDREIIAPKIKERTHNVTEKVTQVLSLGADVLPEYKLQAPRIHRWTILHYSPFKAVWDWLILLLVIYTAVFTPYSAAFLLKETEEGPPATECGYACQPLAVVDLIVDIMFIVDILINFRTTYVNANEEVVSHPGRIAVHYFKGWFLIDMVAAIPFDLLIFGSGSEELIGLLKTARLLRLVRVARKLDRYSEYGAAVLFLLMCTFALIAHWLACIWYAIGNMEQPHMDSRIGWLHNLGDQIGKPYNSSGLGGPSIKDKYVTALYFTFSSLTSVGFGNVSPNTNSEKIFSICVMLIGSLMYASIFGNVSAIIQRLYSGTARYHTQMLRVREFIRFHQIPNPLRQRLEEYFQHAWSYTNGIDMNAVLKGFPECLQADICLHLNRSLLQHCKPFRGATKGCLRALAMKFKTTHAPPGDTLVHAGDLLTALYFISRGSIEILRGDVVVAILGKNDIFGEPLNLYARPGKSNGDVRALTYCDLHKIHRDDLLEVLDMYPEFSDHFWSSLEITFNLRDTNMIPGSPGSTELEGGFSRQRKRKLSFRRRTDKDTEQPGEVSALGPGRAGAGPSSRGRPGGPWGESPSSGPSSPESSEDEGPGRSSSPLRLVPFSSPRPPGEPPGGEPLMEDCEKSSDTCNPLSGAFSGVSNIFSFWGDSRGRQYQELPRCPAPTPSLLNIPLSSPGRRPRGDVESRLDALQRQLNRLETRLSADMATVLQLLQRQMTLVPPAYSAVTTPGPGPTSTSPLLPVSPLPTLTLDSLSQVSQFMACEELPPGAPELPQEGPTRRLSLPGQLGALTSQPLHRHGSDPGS

SMILES | hERG current change (%, negative = inhibition) at 10uM
C=CCOC(=O)C1=C[C@H](c2ccc3c(c2)OCO3)C[C@H](OCCCCO)O1 | -30.2%
Cc1cccc(NC(=O)c2sc3nc4c(c(-c5cccs5)c3c2N)CN(C)CC4)c1 | -51.6%
COC(=O)c1c(NC(=O)c2cccs2)sc2c1CCCC2 | 11.8%
Cc1ccc(CN2CCN(Cc3cnc(C)s3)CC2CCO)cc1 (stereo not drawn) | -19.4%
Nc1nc(SCC(=O)NCC2CCCO2)[nH]c(=O)c1NC(=O)c1ccco1 (stereo not drawn) | 15.2%
CC(=O)c1c(C(C)=O)c(C)n(-c2ccc(C)c(NC(=O)c3ccccc3Cl)c2)c1C | -26.2%
Cc1nn(-c2ccccc2)c2c1C1(C(=O)N3c4c(cccc41)C(C)CC3(C)C)C(C#N)=C(N)O2 (stereo not drawn) | -6.75%
O=[N+]([O-])c1ccccc1CNCCO | 11.2%
O=C(O)C1CC=CCC1C(=O)Nc1cccc(Cl)c1 (stereo not drawn) | 9.77%
C=CCc1ccccc1OCC(O)CN1CCN(c2ccc(OC)cc2)CC1.Cl (stereo not drawn) | -66.5%
O=C(Cc1ccccc1)N/N=C/c1cc2c(cc1Cl)OCO2 | 1.85%
CC(C(=O)Nc1cc(C(F)(F)F)ccc1N1CCOCC1)N1C(=O)C2CCCCC2C1=O (stereo not drawn) | -10.9%
O=C(NNc1ccc([N+](=O)[O-])cc1)c1ccco1 | -4.27%
Cc1ccc(SCC(=O)Nc2ccc(S(=O)(=O)Nc3nccs3)cc2)cc1 | 4.08%
O=C(Nc1ccc2ccccc2c1)c1ccc2[nH]c(=O)c(=O)[nH]c2c1 | 21.3%
Clc1ccccc1Oc1cnc2ccccc2n1 | -21.4%
Cc1cc(C)nc(NC(=S)NC(=O)c2ccccc2)n1 | 19.3%
CCc1noc(C)c1C(=O)Nc1nnc(CC(C)C)s1 | -2.27%
COc1ccc(-c2oc3ccccc3c2C#CC(C)(C)O)cc1 | 11.7%

SMILES | hERG current change (%, negative = inhibition) at 10uM
CCN1C(=S)SC(=O)C1=C1C=C(C)N(CCO)C(C)=C1 | -3.65%
COc1ccccc1C(=O)NCCC(=O)N1CCN(c2ccccc2O)CC1 | 14.1%
Cc1nc(C)c(-c2csc(Nc3ncccc3C)n2)s1 | 15.7%
O=C1CSC(c2cccc([N+](=O)[O-])c2)N1c1ccccc1 (stereo not drawn) | 3.55%
CCCN(Cc1cc2cccc(C)c2[nH]c1=O)S(C)(=O)=O | -11%
Cc1[nH]c2ccccc2c1C(=O)C(=O)N1CCC2(CC1)OCCO2 | 7.95%
CC(=O)Nc1cccc(C(=O)N/N=C/c2ccccc2F)c1 | 7.22%
CC(=O)CSc1nc(C(F)(F)F)cc(=O)n1-c1ccccc1 | 4.91%
COc1ccc(-c2cc(C3CCNCC3)[nH]n2)cc1 | 18.7%
COc1ccc(NC(=O)CN(C)C(=O)c2ccccc2Sc2ncnc3sc(C)c(C)c23)cc1 | -7.35%
Cc1cccc(OCC(=O)NCC(=O)N=Nc2c(O)[nH]c3ccc([N+](=O)[O-])cc23)c1 | 4.94%
CC(C)CNC(=O)/C(C#N)=C1\N=C(NC(=O)c2ccco2)c2ccccc21 | -60.4%
Cc1cc(C)nc(NS(=O)(=O)c2ccc(NC(=O)c3ccc4c(c3)OCCO4)cc2)n1 | 40.7%
CCc1cccc(C)c1NC(=O)CC(C)(C)CC(=O)O | 10.5%
O=C(O)Cn1c(Cc2ccccc2)nc2ccccc21 | -3.32%
CC1CN(C(=O)c2cc(S(=O)(=O)N3CCCC3)c(Cl)cc2Cl)CC(C)O1 (stereo not drawn) | 3.85%
O=C(c1ccc2ncsc2c1)N1CCN(c2ccc(O)cc2)CC1 | -16.9%
O=C(CCCC(=O)N(c1ccc2c(c1)OCCO2)C(C(=O)NC1CCCCC1)c1ccc(Cl)cc1)Nc1ccccn1 (stereo not drawn) | 5.1%
Cn1nc(OCC(=O)O)cc1C(F)(F)F | 11.6%

SMILES | hERG current change (%, negative = inhibition) at 10uM
CCC1CO/C(=C(\C(Cl)=C(Cl)Cl)[N+](=O)[O-])N1 (stereo not drawn) | 24.3%
CC(=O)c1ccc(OCC(=O)NCC2(N3CCCCC3)CCCCC2)cc1 | 4.71%
Cc1ccccc1C(=O)N1CCC(C(=O)Nc2ccc(C(C)C)cc2)CC1 | -29.3%
COc1cccc(Nc2cc(N3CCOCC3)c3nonc3c2[N+](=O)[O-])c1 | -8.87%
COc1ccc(P2(=O)Nc3ccccc3N2)cc1 | -1.63%
CO/C([O-])=N/c1c[n+](-c2ccc(C)cc2)no1 | -1.06%
CCC(=O)c1ccc(OCCN2CCOCC2)cc1 | -6.65%
CC1CCCC(NC(=O)Nc2cccs2)C1C (stereo not drawn) | -20.3%
COc1cc(Cl)c(CN2CCCC(CO)(Cc3ccccc3)C2)cc1OC (stereo not drawn) | -55.2%
COc1ccc(CCNC(=O)c2nnn(CC(=O)Nc3ccccc3)c2N)cc1OC | 4.48%
Cc1ccc(CN(C(=O)C(F)(F)F)C(C(=O)NC2CCCCC2)c2ccco2)cc1 (stereo not drawn) | -7.52%
CCCNC(=O)c1ccccc1NC(=O)c1ccc(CSc2ccccc2)cc1 | 0.292%
CCOC(=O)c1c(O)c2ccccc2oc1=O | -18.7%
COc1ccc(CCC(=O)NC2=NCCS2)cc1OC | 12.6%
CC(CCCCCCCCC(=O)O)N(CCO)C(=O)OC(C)(C)C (stereo not drawn) | 9.6%
CCOC(=O)C1=C(N)OC2=C(C(=O)CC(C)(C)C2)C1c1ccoc1 (stereo not drawn) | -16.1%
CN(C)c1ccc(CNC(=O)c2ccc(CNc3c(N4CCCCC4)c(=O)c3=O)cc2)cc1 | 8.31%
O=[N+]([O-])c1cc(-c2n(-c3ccccn3)c3ccccc3[n+]2-c2ccccn2)ccc1Cl.[I-] | -15.6%
COc1ccc(-c2[nH]ncc2CN(C)CCN2CCOCC2)cc1F | 16.6%

From PMC4336329 (PLoS ONE, 2015)
